The labels stand for the following.
B1: TEV protease; numbered along this chain (parent)
chain: MGESLFKGPRDYNPISSSICHLTNESDGHTTSLYGIGFGPFIITNKHLFRRNNGTLVVQSLHGVFKVKDTTTLQQHLVDGRDMIIIRMPKDFPPFPQKLKFREPQREERICLVTTNFQTKSMSSMVSDTSCTFPSGDGIFWKHWIQTKDGQCGSPLVSTRDGFIVGIHSASNFTNTNNYFTSVPKNFMELLTNQEAQQWVSGWRLNADSVLWGGHKVFMVKPEEPFQPVKEATQL

The text below walks through data of the supplement of paper PMC12217912.

This is one part of the list. The full chains were built here from the parent and the listed change. Inactive controls read about 0.05.
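Also: Bxb1 expression induced with 0.2% (w/v) L-rhamnose at OD600 near 0.5, cultures sampled hourly, flipped fraction per protease–substrate barcode pair counted by paired-end Illumina sequencing.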

The variants in the assay derive from B1. As to the kind of experiment: raw area under fraction-flipped curve 0-4 h after induction (AUC4h, not background-subtracted), DNA-recorder readout of cleavage of the substrate (dimensionless); higher = more cleavage of the substrate by the protease variant. The note with it: temperature: 34 °C; time window: 0-4 h after rhamnose induction.
On to MGESLFKGPRDYNPISSSICHLTNESDGHTTSLYGIGFGPFIITNKHLFRRNNGTLVVQSLHGVFKVKDTTTLQQHLVDGRDMIIIRMPKDFPPFPQKLKFREPQREERICLVTTNFQTKSMSSFVSDTSCTFPSGDGIFWKHWIQTKDGQCGSPLVSTRDGFIVGIHSASNFTNTNNYFTSVPKNFMELLTNQEAQQWVSGWRLNADSVLWGGHKVFMVKPEEPFQPVKEATQL [M125F], for which the “area with substrate HNLYFQS” value was 0.0438, the “area with substrate INLYFQS” value is 0.0523, the “area with substrate KNLYFQS” value was determined as 0.0862 and the “area with substrate LNLYFQS” value amounted to 0.0659. In addition, the “area with substrate TNLYFQS” value worked out at 0.097, the “area with substrate VNLYFQS” value is 0.0708 and the “area with substrate WNLYFQS” value amounted to 0.0582.
With MGESLFKGPRDYNPISSSICHLTNESDGHTTSLYGIGFGPFIITNKHLFRRNNGTLVVQSLHGVFKVKDTTTLQQHLVDGRDMIIIRMPKDFPPFPQKLKFREPQREERICLVTTNFQTKSMSSMVNDTSCTFPSGDGIFWKHWIQTKDGQCGSPLVSTRDGFIVGIHSASNFTNTNNYFTSVPKNFMELLTNQEAQQWVSGWRLNADSVLWGGHKVFMVKPEEPFQPVKEATQL [S127N], the “area with substrate HNLYFQS” value was 0.0172, the “area with substrate INLYFQS” value stood at 0.0625, the “area with substrate KNLYFQS” value worked out at 0.0724 and the “area with substrate MNLYFQS” value was found to be 0.0626. The “area with substrate NNLYFQS” value came out at 0.061, the “area with substrate PNLYFQS” value was 0.0699, the “area with substrate SNLYFQS” value turned out to be 0.0724 and the “area with substrate TNLYFQS” value amounted to 0.0739. Also, the “area with substrate WNLYFQS” value worked out at 0.0769 and the “area with substrate YNLYFQS” value is 0.0529.
Regarding MGESLFKGPRDYNPISSSICHLTNESDGHTTSLYGIGFGPFIITNKHLFRRNNGTLVVQSLHGVFKVKDTTTLQQHLVDGRDMIIIRMPKDFPPFPQKLKFREPQREERICLVTTNFQTKSMSSMVSDTSCTFPSGGGIFWKHWIQTKDGQCGSPLVSTRDGFIVGIHSASNFTNTNNYFTSVPKNFMELLTNQEAQQWVSGWRLNADSVLWGGHKVFMVKPEEPFQPVKEATQL [D137G], the “area with substrate HNLYFQS” value turned out to be 0.0582, the “area with substrate INLYFQS” value turned out to be 0.0726, the “area with substrate KNLYFQS” value worked out at 0.0685 and the “area with substrate LNLYFQS” value turned out to be 0.0689. Besides, the “area with substrate NNLYFQS” value was found to be 0.0581, the “area with substrate PNLYFQS” value turned out to be 0.0557, the “area with substrate QNLYFQS” value stood at 0.0726 and the “area with substrate SNLYFQS” value was 0.0733. Also, the “area with substrate TNLYFQS” value was 0.0591, the “area with substrate VNLYFQS” value is 0.0633, the “area with substrate WNLYFQS” value turned out to be 0.0621 and the “area with substrate YNLYFQS” value amounted to 0.0666.
As for MGESLFKGPRDYNPISSSICHLTNESDGHTTSLYGIGFGPFIITNKHLFRRNNGTLVVQSLHGVFKVKDTTTLQQHLVDGRDMIIIRMPKDFPPFPQKLKFREPQREERICLVTTNFQTKSMSSMVSDTSCTFPSGWGIFWKHWIQTKDGQCGSPLVSTRDGFIVGIHSASNFTNTNNYFTSVPKNFMELLTNQEAQQWVSGWRLNADSVLWGGHKVFMVKPEEPFQPVKEATQL [D137W], the “area with substrate HNLYFQS” value was 0.0762, the “area with substrate SNLYFQS” value turned out to be 0.056 and the “area with substrate WNLYFQS” value was 0.0581.
MGESLFKGPRDYNPISSSICHLTNESDGHTTSLYGIGFGPFIITNKHLFRRNNGTLVVQSLHGVFKVKDTTTLQQHLVDGRDMIIIRMPKDFPPFPQKLKFREPQREERICLVTTNFQTKSMSSMVSDTSCTFPSGDGIFWKHWIQTKFGQCGSPLVSTRDGFIVGIHSASNFTNTNNYFTSVPKNFMELLTNQEAQQWVSGWRLNADSVLWGGHKVFMVKPEEPFQPVKEATQL [D149F]: the “area with substrate HNLYFQS” value came to 0.0599, the “area with substrate KNLYFQS” value was determined as 0.0497, the “area with substrate LNLYFQS” value is 0.0543 and the “area with substrate MNLYFQS” value turned out to be 0.0689. Also, the “area with substrate NNLYFQS” value is 0.0896, the “area with substrate PNLYFQS” value is 0.0574, the “area with substrate SNLYFQS” value was 0.0539 and the “area with substrate TNLYFQS” value turned out to be 0.0177. The “area with substrate VNLYFQS” value is 0.069, the “area with substrate WNLYFQS” value was 0.0612 and the “area with substrate YNLYFQS” value came out at 0.0544.
Turning to MGESLFKGPRDYNPISSSICHLTNESDGHTTSLYGIGFGPFIITNKHLFRRNNGTLVVQSLHGVFKVKDTTTLQQHLVDGRDMIIIRMPKDFPPFPQKLKFREPQREERICLVTTNFQTKSMSSMVSDTSCTFPSGDGIFWKHWIQTKDGQCGSPLVSTRDGFIVGIHSASNFTNTNNYTTSVPKNFMELLTNQEAQQWVSGWRLNADSVLWGGHKVFMVKPEEPFQPVKEATQL [F180T], the “area with substrate HNLYFQS” value is 0.0631, the “area with substrate KNLYFQS” value was 0.0494, the “area with substrate LNLYFQS” value was 0.0719 and the “area with substrate NNLYFQS” value amounted to 0.0531. In addition, the “area with substrate PNLYFQS” value came out at 0.0543, the “area with substrate SNLYFQS” value came out at 0.0525, the “area with substrate TNLYFQS” value stood at 0.0532 and the “area with substrate VNLYFQS” value is 0.0556.
In the case of MGESLFKGPRDYNPISSSICHLTNESDGHTTSLYGIGFGPFIITNKHLFRRNNGTLVVQSLHGVFKVKDTTTLQQHLVDGRDMIIIRMPKDFPPFPQKLKFREPQREERICLVTTNFQTKSMSSMVSDTSCTFPSGDGIFWKHWIQTKDGQCGSPLVSTRDGFIVGIHSNSNFTNTNNYFTSVPKNFMELLTNQEAQQWVSGWRLNADSVLWGGHKVFMVKPEEPFQPVKEATQL [A170N], the “area with substrate HNLYFQS” value was 0.0626, the “area with substrate TNLYFQS” value was determined as 0.0527 and the “area with substrate WNLYFQS” value is 0.0217.
For the variant MGESLFKGPRDYNPISSSICHLTNESDGHTTSLYGIGFGPFIITNKHLFRRNNGTLVVQSLHGVFKVKDTTTLQQHLVDGRDMIIIRMPKDFPPFPQKLKFREPQREERICLVTTNFQTKSMSSMVSDTSCTFFSGDGIFWKHWIQTKDGQCGSPLVSTRDGFIVGIHSASNFTNTNNYFTSVPKNFMELLTNQEAQQWVSGWRLNADSVLWGGHKVFMVKPEEPFQPVKEATQL [P134F], the “area with substrate HNLYFQS” value turned out to be 0.0577, the “area with substrate NNLYFQS” value was found to be 0.0414, the “area with substrate PNLYFQS” value was 0.0714 and the “area with substrate QNLYFQS” value was 0.0529. Further, the “area with substrate SNLYFQS” value turned out to be 0.0608, the “area with substrate TNLYFQS” value amounted to 0.0612 and the “area with substrate WNLYFQS” value was 0.0611.
As to MGESLFKGPRDYNPISSSICHLTNESDGHTTSLYGIGFGPFIITNKHLFRRNNGTLVVQSLHGVFKVKDTTTLQQHLVDGRDMIIIRMPKDFPPFPQKLKFREPQREEDICLVTTNFQTKSMSSMVSDTSCTFPSGDGIFWKHWIQTKDGQCGSPLVSTRDGFIVGIHSASNFTNTNNYFTSVPKNFMELLTNQEAQQWVSGWRLNADSVLWGGHKVFMVKPEEPFQPVKEATQL [R109D], the “area with substrate HNLYFQS” value turned out to be 0.0845, the “area with substrate INLYFQS” value was determined as 0.0501, the “area with substrate KNLYFQS” value was 0.0603 and the “area with substrate LNLYFQS” value is 0.0795. Moreover, the “area with substrate PNLYFQS” value is 0.0652, the “area with substrate QNLYFQS” value worked out at 0.0646, the “area with substrate SNLYFQS” value is 0.0621 and the “area with substrate TNLYFQS” value is 0.064. The “area with substrate VNLYFQS” value was 0.0485 and the “area with substrate WNLYFQS” value amounted to 0.0536.
